The subject of the experiment is NCI-H322M lung. The experiment in a line: NCI tumour cell line growth inhibition, 48 h.

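All cell lines were grown in 96-well plates and treated with compound for 48 hours. GI50 = concentration required for 50% inhibition of growth. The concentration for full growth arrest is given as TGI.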

Turning to `C=CC(=O)N1CCN(c2ccc3nc4c(nc3c2C(F)(F)F)C(=O)c2ncccc2C4=O)CC1`, the GI50 is 4.43 µM and the TGI is 16.4 µM.
For `COc1ccc(-c2nc(S(=O)(=O)c3ccccc3)c(S(C)(=O)=O)o2)cc1` the same measures were 16 µM and 30 µM.
For `O=C(/C=C/c1ccc(F)cc1)c1nc2ccccc2n1Cc1ccc(Br)cc1` the same measures were 3.13 µM and 13.5 µM.
For `COc1cnc2c(c1)C(=O)c1c-2n(CCCNCCO)c(=O)c2cc(OC)c(OC)cc12` the same measures were 3.51 µM and 18.9 µM.
In the case of `CCc1ccc(SC2c3cc(OC)ccc3Oc3nc(N)c(C#N)c(N)c32)cc1` (configuration not stated), the GI50 is 6.84 µM and the TGI turned out to be 22.6 µM.
Take `CN(C)c1nc(NCCNS(=O)(=O)c2ccc(C3=Nc4c(N)nc(N)nc4NC(c4ccc(C(F)(F)F)cc4)C3)cc2)nc(N2CCOCC2)n1` (configuration not stated): the GI50 is 45.4 µM and the TGI was over 100 µM.

(Values after PubChem BioAssay (NCI).)
